The list shows a part of the results.
T1: UNK ZnF1-3 (human, UniProt Q9C0B0 31-174)
T1 sequence: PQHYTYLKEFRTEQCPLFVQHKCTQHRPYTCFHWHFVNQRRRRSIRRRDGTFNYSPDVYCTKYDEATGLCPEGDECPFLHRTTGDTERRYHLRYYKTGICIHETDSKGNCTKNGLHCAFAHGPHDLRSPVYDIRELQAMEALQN

B1: 83881777_83885685_1300_3pUTR_ENSG00000013375_ENST00000513973|human|control|control (ssRNA)
RNA: GGGAGUUCUACAGUCCGACGAUCCCUGGUUAAACAAGUCAAUAAUGUUUUCAAGCAUCUUAGCAGCUUUUCUUUUCUUAUCUUCCAGUUGUUCUGCUGAUUGUUUUAUCUUCAUUUCAACAGCUGUACUAAACAGUGCAGUGCCAACAGAGGAUUGAGCAUCA
B2: chr6:38652254:38652255:-_ENSG00000124767_ENST00000373365|hu_hu|hu_hu_hu_mus_False|28_108 (ssRNA)
RNA: GGGAGUUCUACAGUCCGACGAUCCGAAAACUUCAUAGCAGGGAAGUCAAGCUUCUGCAGGAGGGUCAGUCCAAGAACCCUCGUAUAAAAAUCCAGGGACUUCUUAGGAUCCUUCACUCUUAGCAUCGUUUGCUGCAGUAGAAACAACAGAGGAUUGAGCAUCA
B3: chr2:73747422:73747423:-_ENSMUSG00000018770_ENSMUST00000018914|mus_hu|motif|central (ssRNA)
RNA: GGGAGUUCUACAGUCCGACGAUCCUGAGACACACCAUUCUGGGCCCCAUUAAAUACCGUAGAGCCCUCUCCAGUCCGGCGGGCCUCUGGUCGAGAUAACACUGAUGCAGAAAUUGGUCUGUAUGCAACUCUGGAUCCAGCUCGCAACAGAGGAUUGAGCAUCA
B4: chr2:29004620:29004621:+_ENSG00000213639_ENST00000296122|hu_hu|motif|central (ssRNA)
RNA: GGGAGUUCUACAGUCCGACGAUCCAAUUUAAUAUUAAAUCUUCGUUUGCAUUCAUCAUAGAAUCCAUAAAUGCGAUUGAUGCGGGCACACUCAUGGUUUCCUCUUAAGAGAAAGAAGUUCUCUGGAUAUUUGAUUUUAUAAGCCAACAGAGGAUUGAGCAUCA
B5: chr17:30678820:30678821:+_ENSG00000010244_ENST00000394673|hu_mus|FALSE|FALSE (ssRNA)
RNA: GGGAGUUCUACAGUCCGACGAUCAUUUAAAAUGCUUUGCUUUUUGGUGCUGUAUAAGGAUCUUCUCAUCAUCAAAAUCUCUGUUACAAUACCAGCACCACGGCUUGAGCUGCUUCUUCUUCUUGCGACCCAUAACUGCGCCCUCAACAGAGGAUUGAGCAUCA
B6: chr2:202488911:202488912:-_ENSG00000155755_ENST00000286196|hu_mus|hu_hu_hu_mus_False|68_78 (ssRNA)
RNA: GGGAGUUCUACAGUCCGACGAUCAUUGAAACAUUUUUCAUAAUCUCCAGUAGCAUUCAGUAUUAUAUAAUCAAAAACUCAAUUGUAAAUACAUGUAUCUUAUAAAAAUACACUUAAAAACACGAGUGGGGAGCGCAGGCGCCACAACAGAGGAUUGAGCAUCA
B7: 70218037_70218157_4093_3pUTR_ENSMUSG00000030465_ENSMUST00000120071|mouse|control|control (ssRNA)
RNA: GGGAGUUCUACAGUCCGACGAUCAGUAGAAUUUUUAAAACUGGGUUCCUGGUAAAUCUUUUUAGAAGCUAGCAUGUGGGGGUAGGGGUGAAGCCCAAGAUACACACAGAUUUUAUACAAGGGGUACUUCAAUGGUCAGUUUUUCAACAGAGGAUUGAGCAUCA
B8: 51549937_51557071_1033_CDS_ENSMUSG00000036391_ENSMUST00000109097|mouse|control|control (ssRNA)
RNA: GGGAGUUCUACAGUCCGACGAUCUGGGCCUCCAGCUGGAGGGGGCCCAGGAGGAGCUCCUGGCUGAAAAGUGGGGGGCAGAGGUGGGUUCUGUAAGGGAAGUGCAGAACCUGGCUUUUUGAAGCUGGUUUGAAGUGCAGGGUCCAACAGAGGAUUGAGCAUCA
B9: chr15:41988372:41988373:+_ENSG00000174197_ENST00000570161|hu_mus|motif|central (ssRNA)
RNA: GGGAGUUCUACAGUCCGACGAUCUGUCUCUUCUUGUUUCACUGUUAUCCCUUCUGGGCAUUCACCAAGUUCAUAAUCAUAAUCAUCGGGAGGCUCUUCUUUAAUGACGACAUUAAAGUUUCCAUUCGGGUUUGAUGGUGAGGACAACAGAGGAUUGAGCAUCA
B10: 80378281_80380283_1559_CDS_ENSMUSG00000027002_ENSMUST00000028386|mouse|control|control (ssRNA)
RNA: GGGAGUUCUACAGUCCGACGAUCAACAGCAUCAAAGCCAGAGAGGUAUUGCACGUAGUACCUCUGCAUGACAGGCCCAUACUUCCUGACAUGUGCUCUAAGCUCUUCCAUGUAAAAUAUUAGCUCAGCAAUGUGCUUAUCUAUCAACAGAGGAUUGAGCAUCA
B11: chr11:100879890:100879891:+_ENSMUSG00000019302_ENSMUST00000044721|mus_mus|motif|central (ssRNA)
RNA: GGGAGUUCUACAGUCCGACGAUCCUGGAAAACAUUCACAUCUGGAUUUAAAUCCCGAAAUUGGACCUUCCCAAGCUCUCCGGAUUCACUGACACAGCAAUAAGCAGCUUCAGACUGUAGAAAUAGCUGGGCCAGCGUCAUCUCCAACAGAGGAUUGAGCAUCA
B12: chr1:93988920:93988921:+_ENSG00000137942_ENST00000370253|hu_mus|FALSE|FALSE (ssRNA)
RNA: GGGAGUUCUACAGUCCGACGAUCCAGAUCAUGGGCAUAUCUCAUUAAUUCACCAUAUACUCUGUGCGCCAUUUCUUCUGCUACUACCUCUCGCUGUCCUGCAUAGUCGUUUAACUCAUUAAGGAUGUUAAAAAAGGCGAUACACAACAGAGGAUUGAGCAUCA
B13: chr9:83676842:83676843:-_ENSMUSG00000032262_ENSMUST00000034796|mus_hu|FALSE|FALSE (ssRNA)
RNA: GGGAGUUCUACAGUCCGACGAUCAAUCCAUGGGCCAAAUGCAGUUAACCCAUAGUAUGAGUACAUAAUCACAUGGAUAAAGGAAUUCAACUGGGCUCCAAAAAAUGCUUGUCCUCCUGCAACCCACUUAAUUCCAAUCCACCACAACAGAGGAUUGAGCAUCA
B14: chr12:48362563:48362564:+_ENSG00000134291_ENST00000256686|hu_hu|hu_hu_hu_mus_False|38_38 (ssRNA)
RNA: GGGAGUUCUACAGUCCGACGAUCUCCGUCAAGCCCUUCGAUAGACCCUUGCGGGGGAAACUGUAAUCACUUUGUAUGGGGAAGGAAAAGAAACGCCAACACACUUUCAAAAAGCGGGGGUGGGGUGAGGCGGGAGGGGGAGGUCAACAGAGGAUUGAGCAUCA
B15: 90016286_90016406_504_CDS_ENSMUSG00000057706_ENSMUST00000082237|mouse|control|control (ssRNA)
RNA: GGGAGUUCUACAGUCCGACGAUCGGAACUGGGUACCGGCACGCACUCGGUCAUGUUCACGCUCUUCUUGCGCGGUUCGCUGUCGUACAAAGAGGCGCCCUCAUCACUGUCCAGUCCCAACAGGGAGAGCUGAUCGAGCGCAAGCAACAGAGGAUUGAGCAUCA
B16: chr14:78183846:78183847:+_ENSG00000119705_ENST00000557342|hu_hu|hu_hu_hu_mus_False|38_78 (ssRNA)
RNA: GGGAGUUCUACAGUCCGACGAUCUCUCAGAAAUCUUUCUUCAUCAGAUGUUUGAGCUGUUUGCGGAGCCUUUGCUCUUUGAGCUUGAACGUGGAUCUUUACUCCAUAAAGCACUGUCAGAAAAGGUAAUUUUUUUUUUAAAGACAACAGAGGAUUGAGCAUCA
B17: chr5:72798899:72798900:+_ENSG00000145741_ENST00000335895|hu_hu|motif|central (ssRNA)
RNA: GGGAGUUCUACAGUCCGACGAUCUGGUGCUUUUCCAUCCACAGAUUGUUUGGGCAGAGCUUCGGCCAGUCUCCUUAAACGGGUCAGACUAUCCGCACCAAGCUGGUUUAAGAUGCUGGGUAGCAUUUCUGUCAGCUGCUUUGUCAACAGAGGAUUGAGCAUCA
B18: 122662726_122664163_3219_CDS_ENSG00000120008_ENST00000263461|human|control|control (ssRNA)
RNA: GGGAGUUCUACAGUCCGACGAUCGUCUGUUUGACCCAAGAGCAGUAGCUGGUCUGUACAUUUCCUUGUAUGAUCAUAAGUUGACCGUUUCACUUCCUGCAGAUUAACCCUUUCUAGCUGAAAUUUCUGAAAGUAGGCAUUUUCCAACAGAGGAUUGAGCAUCA
B19: chr1:66461069:66461070:+_ENSMUSG00000015222_ENSMUST00000114013|mus_mus|motif|central (ssRNA)
RNA: GGGAGUUCUACAGUCCGACGAUCUUGACUAUCUGGUUUUACAGUGACUGGGCUUUCAUCAGCGACAGGUGGCAAACUGGUACGGCUCUCUGCAAGCAUAGCCUCUGAUGGGACUGAUUUCCUCCUGGCAACCUCAGCAUCUGCCAACAGAGGAUUGAGCAUCA
B20: chr11:79222206:79222207:+_ENSMUSG00000020716_ENSMUST00000071325|mus_hu|motif|central (ssRNA)
RNA: GGGAGUUCUACAGUCCGACGAUCUUUUGUAAAUUCAUCUGGAUAAUUUUCUACCCAGUUCCAAAAUGCCUUUUCCAGGCGGUUUAUAACUGCUAACUGCGCAACCUUCUUUAGGGCUUUAAAUUUAAAUGCUGUUUCCUUCAGCAACAGAGGAUUGAGCAUCA
B21: chr22:19452774:19452775:-_ENSG00000070010_ENST00000399523|hu_hu|hu_hu_hu_mus_False|58_78 (ssRNA)
RNA: GGGAGUUCUACAGUCCGACGAUCCUUCUCAUUGUAGUUGAUAGCAAUCACAUCUCCGGUGGUCAGACAGGCGAAGUUCCUAAGUGCAUUUUCUAAUACCGCUUUAGGGUUGGUAAUAUCCAGGAAGUCUGGGCUCUGAGGCUGCAACAGAGGAUUGAGCAUCA
B22: chr5:128448638:128448639:+_ENSG00000066583_ENST00000173527|hu_mus|hu_hu_hu_mus_False|68_98 (ssRNA)
RNA: GGGAGUUCUACAGUCCGACGAUCGGCACUCGCCUUAAUUAGAUUCUGAAUUUCCUUGAACUUCGGGUGGUCCUUAUCAGCCACCAGCUGUAGGAGGACAGCCUCACUAGUGGUCACGAUGAUCCCAGUGCGGGCAAGACGCUCCAACAGAGGAUUGAGCAUCA

Target: T1, UNK ZnF1-3
Test: nsRBNS (natural sequence RNA bind-n-seq); RBNS binding buffer (assumed for nsRBNS): 25 mM Tris pH 7.5, 150 mM KCl, 3 mM MgCl2, 0.01% Triton X-100, 500 ug/ml BSA, 20 U/ml SUPERase-In, 4 C; UNK is unkempt and MSI1 is Musashi-1; names of the RNAs are library labels; protein concentration not given here; high values mean tight binding

Row | Binder | binding signal [enrichment R]
1 | B1 | 0.393
2 | B2 | 0.426
3 | B3 | 1
4 | B4 | 1.24
5 | B5 | 0.719
6 | B6 | 1.33
7 | B7 | 2.56
8 | B8 | 2.06
9 | B9 | 0.961
10 | B10 | 1.33
11 | B11 | 0.493
12 | B12 | 1.08
13 | B13 | 0.832
14 | B14 | 2.02
15 | B15 | 0.721
16 | B16 | 0.932
17 | B17 | 0.616
18 | B18 | 0.78
19 | B19 | 0.795
20 | B20 | 0.782
21 | B21 | 1.03
22 | B22 | 0.755

— paper PMC12136788
